# Test results: the supplement of paper PMC8728848
# Some of the results follow.
# B1: MAA (Maackia amurensis), P0DKL3 (protein)
# chain: MATSNSKPTQVLLATFLTFFFLLLNNVNSSDELSFTINNFVPNEADLLFQGEASVSSTGVLQLTRVENGQPQKYSVGRALYAAPVRIWDNTTGSVASFSTSFTFVVKAPNPDITSDGLAFYLAPPDSQIPSGSVSKYLGLFNNSNSDSSNQIVAVELDTYFAHSYDPWDPNYRHIGIDVNGIESIKTVQWDWINGGVAFATITYLAPNKTLIASLVYPSNQTTFSVAASVDLKEILPEWVRVGFSAATGYPTEVETHDVLSWSFTSTLEANCDAATENNVHIARYTA
# Experiments:
# Assay in all cases: glycan array binding signal (z-score within array); higher = stronger binding
# Conditions in all cases: glycan notation: IUPAC condensed, linker removed
# [1] = biological target: Gal3S(b1-3)[Fuc(a1-4)]GlcNAc
# Summary of the method: (§1)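 Negative Z-scores can be read as non-binding. The Z-score is calculated within each array and then averaged across arrays of one protein sequence at different concentrations or buffers and across linkers. Arrays, 3228 in all, were curated from the Consortium for Functional Glycomics database and kept only where the protein sequence was available.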
# Gal3S(b1-4)Glc = biological target: Gal3S(b1-4)Glc
# Summary of the method: as §1
# Gal3S(b1-4)Glc6S = biological target: Gal3S(b1-4)Glc6S
# Summary of the method: as §1
# Gal3S(b1-4)GlcNAc = biological target: Gal3S(b1-4)GlcNAc
# Summary of the method: as §1
# Gal3S(b1-4)GlcNAc6S = biological target: Gal3S(b1-4)GlcNAc6S
# Summary of the method: as §1
# [2] = biological target: Gal3S(b1-4)[Fuc(a1-3)]Glc6S
# Summary of the method: as §1
# [3] = biological target: Gal3S(b1-4)[Fuc(a1-3)]GlcNAc
# Summary of the method: as §1
# [4] = biological target: Gal3S(b1-4)[Fuc(a1-3)]GlcNAc6S
# Summary of the method: as §1
# Gal3S4S(b1-4)GlcNAc = biological target: Gal3S4S(b1-4)GlcNAc
# Summary of the method: as §1
# Gal3S6S(b1-4)GlcNAc = biological target: Gal3S6S(b1-4)GlcNAc
# Summary of the method: as §1
# Gal3S6S(b1-4)GlcNAc6S = biological target: Gal3S6S(b1-4)GlcNAc6S
# Summary of the method: as §1
# Gal4S(b1-4)GlcNAc = biological target: Gal4S(b1-4)GlcNAc
# Summary of the method: as §1
# Gal4S6S(b1-4)GlcNAc = biological target: Gal4S6S(b1-4)GlcNAc
# Summary of the method: as §1
# Gal6P(b1-4)GlcNAc = biological target: Gal6P(b1-4)GlcNAc
# Summary of the method: as §1
# Gal6S(b1-3)GlcNAc = biological target: Gal6S(b1-3)GlcNAc
# Summary of the method: as §1
# Gal6S(b1-3)GlcNAc6S = biological target: Gal6S(b1-3)GlcNAc6S
# Summary of the method: as §1
# Gal6S(b1-4)Glc = biological target: Gal6S(b1-4)Glc
# Summary of the method: as §1
# Gal6S(b1-4)Glc6S = biological target: Gal6S(b1-4)Glc6S
# Summary of the method: as §1
# Gal6S(b1-4)GlcNAc = biological target: Gal6S(b1-4)GlcNAc
# Summary of the method: as §1
# Gal6S(b1-4)GlcNAc6S = biological target: Gal6S(b1-4)GlcNAc6S
# Summary of the method: as §1
# GalNAc(a1-3)Gal = biological target: GalNAc(a1-3)Gal
# Summary of the method: as §1
# GalNAc(a1-3)GalNAc = biological target: GalNAc(a1-3)GalNAc
# Summary of the method: as §1
# [5] = biological target: GalNAc(a1-3)GalNAc(a1-3)Gal(a1-4)Gal(b1-4)GlcNAc
# Summary of the method: as §1
# [6] = biological target: GalNAc(a1-3)GalNAc(b1-3)Gal(a1-4)Gal(b1-4)Glc
# Summary of the method: as §1
# [7] = biological target: GalNAc(a1-3)GalNAc(b1-3)Gal(a1-4)Gal(b1-4)GlcNAc
# Summary of the method: as §1
# GalNAc(b1-3)Gal = biological target: GalNAc(b1-3)Gal
# Summary of the method: as §1
# [8] = biological target: GalNAc(b1-3)Gal(a1-4)Gal(b1-4)GlcNAc
# Summary of the method: as §1
# [9] = biological target: GalNAc(b1-3)Gal(a1-4)Gal(b1-4)GlcNAc(b1-3)Gal(b1-4)Glc
# Summary of the method: as §1
# [10] = biological target: GalNAc(b1-3)Gal(a1-6)Gal(b1-4)Glc
# Summary of the method: as §1
# GalNAc(b1-3)GalNAc = biological target: GalNAc(b1-3)GalNAc
# Summary of the method: as §1
# GalNAc(b1-3)GlcNAc = biological target: GalNAc(b1-3)GlcNAc
# Summary of the method: as §1
# GalNAc(b1-4)Gal(b1-4)Glc = biological target: GalNAc(b1-4)Gal(b1-4)Glc
# Summary of the method: as §1
# GalNAc(b1-4)GlcNAc = biological target: GalNAc(b1-4)GlcNAc
# Summary of the method: as §1
# [11] = biological target: GalNAc(b1-4)GlcNAc(b1-2)Man
# Summary of the method: as §1
# [12] = biological target: GalNAc(b1-4)GlcNAc(b1-2)Man(a1-3)[GalNAc(b1-4)GlcNAc(b1-2)Man(a1-6)]Man(b1-4)GlcNAc(b1-4)GlcNAc
# Summary of the method: as §1
# [13] = biological target: GalNAc(b1-4)GlcNAc(b1-3)GalNAc(b1-4)GlcNAc
# Summary of the method: as §1
# GalNAc(b1-4)GlcNAc6S = biological target: GalNAc(b1-4)GlcNAc6S
# Summary of the method: as §1
# GalNAc(b1-6)GalNAc = biological target: GalNAc(b1-6)GalNAc
# Summary of the method: as §1
binder,measurement,setting,value
B1,glycan array binding signal (z-score),[1],-0.215
same,glycan array binding signal (z-score),Gal3S(b1-4)Glc,5.2
same,glycan array binding signal (z-score),Gal3S(b1-4)Glc6S,6.87
same,glycan array binding signal (z-score),Gal3S(b1-4)GlcNAc,6.25
same,glycan array binding signal (z-score),Gal3S(b1-4)GlcNAc6S,4.71
same,glycan array binding signal (z-score),[2],0.493
same,glycan array binding signal (z-score),[3],-0.224
same,glycan array binding signal (z-score),[4],7.75
same,glycan array binding signal (z-score),Gal3S4S(b1-4)GlcNAc,-0.241
same,glycan array binding signal (z-score),Gal3S6S(b1-4)GlcNAc,-0.28
same,glycan array binding signal (z-score),Gal3S6S(b1-4)GlcNAc6S,0.832
same,glycan array binding signal (z-score),Gal4S(b1-4)GlcNAc,0.32
same,glycan array binding signal (z-score),Gal4S6S(b1-4)GlcNAc,-0.264
same,glycan array binding signal (z-score),Gal6P(b1-4)GlcNAc,-0.202
same,glycan array binding signal (z-score),Gal6S(b1-3)GlcNAc,-0.354
same,glycan array binding signal (z-score),Gal6S(b1-3)GlcNAc6S,-0.311
same,glycan array binding signal (z-score),Gal6S(b1-4)Glc,-0.187
same,glycan array binding signal (z-score),Gal6S(b1-4)Glc6S,-0.213
same,glycan array binding signal (z-score),Gal6S(b1-4)GlcNAc,0.36
same,glycan array binding signal (z-score),Gal6S(b1-4)GlcNAc6S,-0.016
same,glycan array binding signal (z-score),GalNAc(a1-3)Gal,-0.197
same,glycan array binding signal (z-score),GalNAc(a1-3)GalNAc,-0.289
same,glycan array binding signal (z-score),[5],-0.221
same,glycan array binding signal (z-score),[6],-0.179
same,glycan array binding signal (z-score),[7],-0.209
same,glycan array binding signal (z-score),GalNAc(b1-3)Gal,-0.193
same,glycan array binding signal (z-score),[8],-0.26
same,glycan array binding signal (z-score),[9],-0.193
same,glycan array binding signal (z-score),[10],-0.204
same,glycan array binding signal (z-score),GalNAc(b1-3)GalNAc,-0.186
same,glycan array binding signal (z-score),GalNAc(b1-3)GlcNAc,-0.22
same,glycan array binding signal (z-score),GalNAc(b1-4)Gal(b1-4)Glc,-0.211
same,glycan array binding signal (z-score),GalNAc(b1-4)GlcNAc,-0.03
same,glycan array binding signal (z-score),[11],-0.014
same,glycan array binding signal (z-score),[12],1.18
same,glycan array binding signal (z-score),[13],-0.165
same,glycan array binding signal (z-score),GalNAc(b1-4)GlcNAc6S,-0.365
same,glycan array binding signal (z-score),GalNAc(b1-6)GalNAc,-0.356
